Measurements: the supplement of paper PMC12217912
The list shows a part of the results. Sequences were assembled here from the parent chain. Inactive controls read about 0.05.

B1: TEV protease; numbered along this chain (parent)
chain: MGESLFKGPRDYNPISSSICHLTNESDGHTTSLYGIGFGPFIITNKHLFRRNNGTLVVQSLHGVFKVKDTTTLQQHLVDGRDMIIIRMPKDFPPFPQKLKFREPQREERICLVTTNFQTKSMSSMVSDTSCTFPSGDGIFWKHWIQTKDGQCGSPLVSTRDGFIVGIHSASNFTNTNNYFTSVPKNFMELLTNQEAQQWVSGWRLNADSVLWGGHKVFMVKPEEPFQPVKEATQL

Variants of: B1
Assay: raw area under fraction-flipped curve 0-4 h after induction (AUC4h, not background-subtracted), DNA-recorder readout of cleavage of the substrate (dimensionless); higher = more cleavage of the substrate by the protease variant
Details: temperature: 34 °C; time window: 0-4 h after rhamnose induction
Method: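 In vivo DNA recorder in E. coli TOP10(DE3) ΔrhaA at 34 °C. Each TEVp single-site mutant (parent TEVp 0) is paired with a single-site variant of the 7-mer TEVs (canonical ENLYFQ|S). The substrate sits between flexible linkers in a Bxb1-sfGFP-TEVs-SsrA fusion, so cleavage stabilises Bxb1 and speeds flipping of a recombination array, read by NGS. The value is the raw area under the fraction-flipped curve over 0-4 h after rhamnose induction (AUC4h), with ≥20 reads per time point. It is not background-subtracted; inactive controls average about 0.047.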
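Also: Bxb1 expression induced with 0.2% (w/v) L-rhamnose at OD600 near 0.5, cultures sampled hourly, flipped fraction per protease–substrate barcode pair counted by paired-end Illumina sequencing.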

Variant	area with substrate ENLYFQC	area with substrate ENLYFQD	area with substrate ENLYFQG	area with substrate ENLYFQI	area with substrate ENLYFQK	area with substrate ENLYFQL	area with substrate ENLYFQM	area with substrate ENLYFQN	area with substrate ENLYFQP	area with substrate ENLYFQQ	area with substrate ENLYFQR	area with substrate ENLYFQS	area with substrate ENLYFQT	area with substrate ENLYFQV	area with substrate ENLYFQW	area with substrate ENLYFQY	area with substrate ENLYFQA	area with substrate ENLYFQF	area with substrate ENLYFQH	area with substrate ENLYFQE
E25R	0.12	0.0777	0.106	0.0569	0.0636	0.0516	0.0897	0.0821	0.0539	0.105	0.0538	0.107	0.0681	0.0687	0.0971	0.135				
V220W	0.115	0.0775	0.091	0.0579		0.071		0.0746	0.0765	0.0836		0.0894	0.063	0.0614	0.0549	0.0684	0.0614	0.0553		
Q227V	0.133	0.0571		0.0412		0.0542	0.0939	0.0814	0.0496		0.0533	0.105		0.0551			0.0949		0.0676	
Q227K	0.101			0.0729		0.0556	0.101	0.0734	0.0584		0.0494	0.106	0.0597	0.0472	0.0591	0.0786	0.103		0.083	0.0744
Q194F	0.0826			0.0553		0.0566		0.0726	0.0465	0.0649	0.0566	0.102	0.0646	0.0611	0.0579		0.0753		0.0638	0.0851
Q197D	0.0856		0.097		0.0657	0.0637			0.0647	0.0697	0.0601	0.0861	0.0421			0.0784	0.0842		0.0711	
T192M	0.111		0.0878	0.0659	0.0648	0.0526	0.0788	0.12	0.0569	0.0834	0.0627	0.0988	0.0702	0.076		0.0911	0.101	0.0744	0.0726	0.0522
S4H	0.127	0.0748		0.044		0.0544	0.116		0.0593		0.0267	0.124	0.0471		0.0901	0.0834		0.0834		0.0581
N13I	0.0936	0.0723		0.064	0.0621	0.0676	0.0869	0.0709	0.0608		0.0628	0.0922	0.0609	0.0619	0.0299	0.0676				
Q234N	0.12		0.136	0.0635	0.0741	0.0508	0.084	0.0761			0.0617	0.107	0.0767	0.0545		0.0786	0.107		0.0756	
Q234W	0.108	0.0648		0.0527		0.0653	0.104	0.0855			0.0512	0.096	0.0653		0.0562	0.0777	0.0893		0.0716	
W199E	0.0852	0.0738	0.0548	0.0628	0.0437		0.0624	0.056			0.0608	0.0626	0.0707				0.0459	0.0597	0.0659	
W199N	0.0689				0.0651	0.0558		0.0488			0.0522	0.0665	0.0563	0.0957			0.0817	0.0561	0.0673	
S26L	0.0758		0.0587	0.0538	0.0546	0.0626		0.0443	0.0668		0.0556	0.0732	0.0523	0.0543	0.0731			0.082		
S26N	0.0759	0.0568	0.0664	0.0592	0.0616	0.0618	0.0826	0.0506			0.0653	0.084	0.0333	0.0668	0.065			0.0691	0.0722	
R204F	0.145		0.0957	0.0591	0.0632	0.0637	0.0909	0.0661	0.0507	0.0903	0.0649	0.113	0.0733	0.0635	0.0753		0.112		0.0848	
R204L	0.12	0.0696	0.11	0.0446	0.0613	0.0563	0.0852	0.0707	0.0551		0.0583	0.0966	0.0667	0.045	0.0701	0.0814	0.099	0.0516	0.0766	
E3Q	0.109			0.065	0.0481	0.066		0.0839			0.071	0.0988						0.0395	0.0799	
L205G		0.085	0.0681	0.0514	0.0575	0.057	0.0475		0.0584	0.0313	0.0572	0.0718	0.0536		0.0614	0.0607	0.0821	0.0384	0.0583	
L205M	0.122		0.111	0.0639	0.0716	0.0624	0.1	0.0913		0.0817	0.0545	0.118	0.0613	0.0609	0.0561	0.0839	0.0994			0.0453
N24E	0.086	0.0647	0.0622	0.0675	0.0651	0.0647	0.0923	0.0587	0.0674		0.0619	0.0859	0.0689	0.0551	0.0679	0.0793		0.0683	0.0732	
V229F	0.115	0.0616	0.0601	0.0661		0.062	0.0833	0.0775				0.0996	0.068	0.0609	0.0664	0.0717	0.0836		0.0715	
V229C	0.132	0.0682	0.0895		0.0566	0.0591	0.0965	0.079	0.073		0.0713	0.0983		0.0623	0.0695		0.115		0.0767	
L22I	0.104	0.0531	0.0849	0.0432	0.0667	0.0552	0.0792	0.072	0.0725		0.065	0.107	0.0764	0.0637	0.0738	0.0834			0.0695	
S18A	0.118		0.057			0.0584	0.113	0.138			0.0666	0.11	0.0688	0.0597	0.0736	0.0825		0.0794		
